Measured values as given in publication PMC4336329 (PLoS ONE, 2015).
The whole screen tested about 310,000 compounds, of which about 14,000 (4.5%) showed an effect of 50% or more. Effects have a minus sign here. This is one part of the list.

Target: human ether-à-go-go-related gene (hERG) potassium channel (human, UniProt Q12809)
Assay: primary screen, population patch clamp on CHO cells stably expressing hERG
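Also: peak tail current of the secondary pulse compared with the same well before compound.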

human ether-à-go-go-related gene (hERG) potassium channel, sequence (Q12809 whole entry, looked up): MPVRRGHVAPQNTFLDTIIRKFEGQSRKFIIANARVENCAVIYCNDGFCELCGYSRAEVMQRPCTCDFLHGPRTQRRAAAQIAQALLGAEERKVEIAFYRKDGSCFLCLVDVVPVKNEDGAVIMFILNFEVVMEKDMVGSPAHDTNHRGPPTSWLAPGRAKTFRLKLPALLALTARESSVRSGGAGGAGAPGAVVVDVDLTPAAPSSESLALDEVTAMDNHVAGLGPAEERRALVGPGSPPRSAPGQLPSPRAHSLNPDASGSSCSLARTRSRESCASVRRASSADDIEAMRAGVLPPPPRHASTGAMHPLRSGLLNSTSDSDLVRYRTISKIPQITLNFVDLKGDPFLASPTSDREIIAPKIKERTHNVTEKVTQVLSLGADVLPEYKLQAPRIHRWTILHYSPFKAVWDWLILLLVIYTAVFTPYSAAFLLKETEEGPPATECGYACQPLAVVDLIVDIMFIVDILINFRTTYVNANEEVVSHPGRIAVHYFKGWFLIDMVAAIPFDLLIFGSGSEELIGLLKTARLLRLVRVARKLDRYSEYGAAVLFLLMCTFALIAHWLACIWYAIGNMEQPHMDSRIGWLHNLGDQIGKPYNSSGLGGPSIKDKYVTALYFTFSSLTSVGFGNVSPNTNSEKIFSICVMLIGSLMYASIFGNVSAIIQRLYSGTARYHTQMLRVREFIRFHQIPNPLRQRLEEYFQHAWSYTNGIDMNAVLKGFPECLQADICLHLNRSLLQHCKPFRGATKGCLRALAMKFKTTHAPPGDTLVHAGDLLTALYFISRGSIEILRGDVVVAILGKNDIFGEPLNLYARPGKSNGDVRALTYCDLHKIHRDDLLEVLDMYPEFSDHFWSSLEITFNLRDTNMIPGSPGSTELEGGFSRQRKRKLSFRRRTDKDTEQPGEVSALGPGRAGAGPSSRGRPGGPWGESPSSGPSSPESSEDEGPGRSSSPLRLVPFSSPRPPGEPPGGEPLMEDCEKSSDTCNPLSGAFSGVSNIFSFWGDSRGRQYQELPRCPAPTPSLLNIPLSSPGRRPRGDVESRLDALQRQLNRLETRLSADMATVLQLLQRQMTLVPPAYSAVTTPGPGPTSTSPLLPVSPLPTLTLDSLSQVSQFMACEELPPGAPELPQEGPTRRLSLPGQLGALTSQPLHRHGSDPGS

Structure (SMILES)	hERG current change (%, negative = inhibition) at 10uM [%]
Cc1oc(-c2ccccc2Cl)nc1CSCC(=O)NC1CCCC1	-25.1
CC(C)Cn1cnc2c1c(=O)n(CC(=O)N(C)C)c(=O)n2Cc1ccccc1	8.95
Cc1cc(C)c([N+](=O)[O-])cc1NC(=O)CCSc1ccccc1Cl	6.59
CCc1ccc(-c2csc(NC(=O)COC(=O)CCc3nc4ccccc4s3)n2)cc1	6.31
CC1(NC(=O)Cn2cc(C(F)(F)F)ccc2=O)CCS(=O)(=O)C1 (stereo not drawn)	-5.69
CC1CCCCN1Cc1cnc(Cl)s1 (stereo not drawn)	0.546
Cc1nc(-c2cccc(NC(=O)c3ccc(Br)o3)c2)cs1	-31.3
Cc1onc(-c2ccccc2Cl)c1C(=O)N1CCN(c2ccccc2)CC1	-6.55
Cc1cccc(-c2noc(CNS(=O)(=O)c3ccccc3)n2)c1	5.25
COc1cc(OC)cc(C(=O)NCCN2C(=O)S/C(=C\c3cccs3)C2=O)c1	-0.617
CCCCc1c(C)[nH]c(C(=O)OCC)c1C	8.51
Cn1cc(CCCC(=O)NCc2ccc(F)cc2)c2ccccc21	-10.4
O=C(NC1CCN(C(=S)Nc2ccc(Cl)cc2)CC1)C1CCCCC1	17.5
CN(C)C(=O)COc1ccc(C(=O)/C=C/c2cccnc2)cc1	18.1
Cc1c(C)n2c(SCC(=O)N3CCCCC3)nnc2[nH]c1=O	9.92
COC(=O)CNC(=O)c1ccc(=O)oc1	16.1
COc1cc(OC)cc(-c2cc3nc4c(c(N5CCN(c6ncccn6)CC5)n3n2)CCCC4)c1	4.89
O=[N+]([O-])c1ccc(-c2cn3c(n2)CCC3)cc1	-17.5
O=C1NC2(CCCCC2)C(=O)N1Cc1cc(=O)n2ccsc2n1	17.1

Structure (SMILES)	hERG current change (%, negative = inhibition) at 10uM [%]
O=C(O)c1ccc(CSc2ncnc3c2cnn3Cc2ccccc2)cc1	2.67
COc1ccccc1OCc1csc(NC(=O)c2ccco2)n1	-21.7
Cc1nc(=O)c(-c2ccccc2)c(C)n1CCCO	6.73
COc1ccc(CNC(=O)Cn2c(=O)oc3ccccc32)cc1OC	-25.1
Cc1cc(C)n2nc(CNS(=O)(=O)c3ccc(F)c(C)c3)nc2n1	-1.63
COc1ccc(CCNS(=O)(=O)c2ccc(OC)c(OC)c2)cc1OC	1.32
COc1ccc(S(=O)(=O)N2CCOC2CNC(=O)C(=O)NCCCN(C)C)cc1C (stereo not drawn)	-10.3
Cc1ccc(C2=NC3(CCCC3)NC2=S)cc1	7.59
CC(C)C(Nc1ccc(C(F)(F)F)cc1[N+](=O)[O-])C(=O)O (stereo not drawn)	27.5
C=CCNC(=O)C1CC1(c1ccc(C)cc1)c1ccc(C)cc1 (stereo not drawn)	-21.6
CCN1CCN(Cc2ccc(NC(=O)c3cc(NC(=O)c4ccc5n[nH]nc5c4)cc(OC)c3)cc2C(F)(F)F)CC1	21.1
CSCCC(NC(=O)c1cc([N+](=O)[O-])cc([N+](=O)[O-])c1)c1nc2ccccc2[nH]1 (stereo not drawn)	-35
Cc1ccc(/C=N/N2C(=O)C3C(C2=O)C2C=CC3C23CC3)o1 (stereo not drawn)	-2.72
O=C(NCc1ccccn1)c1cc(S(=O)(=O)N2CCCCC2)ccc1Cl	3.78
CC(Oc1ccccc1)C(=O)Nc1ccccc1F (stereo not drawn)	-14.1
CN(C)CCNC(C(=O)Nc1cc(Cl)cc(Cl)c1)c1ccccc1 (stereo not drawn)	-45.6
O=C(N/C(=C/c1ccco1)C(=O)N1CCCCCC1)c1cccs1	-18.3
O=C1CCCN1CCCNC(=S)Nc1ccc(Br)cc1Cl	-2.97
O=C(CN1CCN(S(=O)(=O)c2cccc(F)c2)CC1)Nc1ccnn1C1CCCC1	-13.6

Structure (SMILES)	hERG current change (%, negative = inhibition) at 10uM [%]
CN(C)C(=O)CN(C)S(=O)(=O)c1ccc(Cl)cc1	-3.59
COc1ccc(NC(=O)N2CCN(S(C)(=O)=O)CC2)c(OC)c1	6.39
CCC(=O)NC(=S)Nc1ccc(NC(=O)c2ccc(Br)o2)cc1	3.82
c1ccc(C(c2nnnn2C2CCCC2)N2CCN(c3nc4ccccc4s3)CC2)cc1 (stereo not drawn)	-3.46
O=C(CN1CCN(S(=O)(=O)c2ccc(Br)cc2)CC1)N/N=C/c1ccncc1	-70.6
CCCOC(=O)Nc1cc(OC)c(Cl)cc1OC	-6.7
Cc1ccc(C2=NOC3(CC(=O)N(c4ccc(C)cc4)C3=O)C2)cc1 (stereo not drawn)	21.4
COc1ccccc1C(=O)C1CCCN(Cc2ccc3c(c2)OCCO3)C1 (stereo not drawn)	-40.5
O=C(Nc1ccccn1)c1cccc(S(=O)(=O)N2CCCc3ccccc32)c1	-16.8
Cc1cccnc1NC(=O)CSc1nnc(Cc2ccccc2)o1	1.66
CCN(CC)S(=O)(=O)c1ccc2oc(C(=O)NCc3ccc(C)cc3)c(C)c2c1	-13.9
CSc1ccc(/C=C(\NC(=O)c2ccccc2)C(=O)NCCN2CCOCC2)cc1	-63.7
CCCCc1c(O)n2c(nc3ccccc32)[nH]c1=O	13.8
CCOC(=O)CNc1nc(Cl)nc(Nc2ccc(Cl)cc2)n1	15
CCOC(=O)/C(C(N)=NC(C)C)=C(\O)c1ccccc1	-1.58
CCn1c(CSc2nc3ccccc3s2)nnc1SCC(=O)c1ccc(Cl)cc1	6.76
Cc1ccn(CC(=O)N2CCCC(N3CCN(c4cccc(Cl)c4)CC3)C2)n1 (stereo not drawn)	-33.6
COC(=O)[C@@H](Cc1ccc(O)cc1)NC(=O)[C@H]1CCC(=O)N1C(=O)OCc1ccccc1	-8.27
C=CCN(c1cccc(C(F)(F)F)c1)S(=O)(=O)c1cccc(C(=O)OCC(=O)NCCC)c1	-39.2
